Measured values from article PMC4336329 (PLoS ONE, 2015).
In all, about 310,000 compounds went through this assay and about 2,200 (0.71%) showed an effect of 50% or more. The effect is printed as a negative number. The list shows a part of the results.

Molecular target: human ether-à-go-go-related gene (hERG) potassium channel (human, UniProt Q12809)
Assay: primary screen, population patch clamp on CHO cells stably expressing hERG

human ether-à-go-go-related gene (hERG) potassium channel, sequence (Q12809 whole entry, looked up): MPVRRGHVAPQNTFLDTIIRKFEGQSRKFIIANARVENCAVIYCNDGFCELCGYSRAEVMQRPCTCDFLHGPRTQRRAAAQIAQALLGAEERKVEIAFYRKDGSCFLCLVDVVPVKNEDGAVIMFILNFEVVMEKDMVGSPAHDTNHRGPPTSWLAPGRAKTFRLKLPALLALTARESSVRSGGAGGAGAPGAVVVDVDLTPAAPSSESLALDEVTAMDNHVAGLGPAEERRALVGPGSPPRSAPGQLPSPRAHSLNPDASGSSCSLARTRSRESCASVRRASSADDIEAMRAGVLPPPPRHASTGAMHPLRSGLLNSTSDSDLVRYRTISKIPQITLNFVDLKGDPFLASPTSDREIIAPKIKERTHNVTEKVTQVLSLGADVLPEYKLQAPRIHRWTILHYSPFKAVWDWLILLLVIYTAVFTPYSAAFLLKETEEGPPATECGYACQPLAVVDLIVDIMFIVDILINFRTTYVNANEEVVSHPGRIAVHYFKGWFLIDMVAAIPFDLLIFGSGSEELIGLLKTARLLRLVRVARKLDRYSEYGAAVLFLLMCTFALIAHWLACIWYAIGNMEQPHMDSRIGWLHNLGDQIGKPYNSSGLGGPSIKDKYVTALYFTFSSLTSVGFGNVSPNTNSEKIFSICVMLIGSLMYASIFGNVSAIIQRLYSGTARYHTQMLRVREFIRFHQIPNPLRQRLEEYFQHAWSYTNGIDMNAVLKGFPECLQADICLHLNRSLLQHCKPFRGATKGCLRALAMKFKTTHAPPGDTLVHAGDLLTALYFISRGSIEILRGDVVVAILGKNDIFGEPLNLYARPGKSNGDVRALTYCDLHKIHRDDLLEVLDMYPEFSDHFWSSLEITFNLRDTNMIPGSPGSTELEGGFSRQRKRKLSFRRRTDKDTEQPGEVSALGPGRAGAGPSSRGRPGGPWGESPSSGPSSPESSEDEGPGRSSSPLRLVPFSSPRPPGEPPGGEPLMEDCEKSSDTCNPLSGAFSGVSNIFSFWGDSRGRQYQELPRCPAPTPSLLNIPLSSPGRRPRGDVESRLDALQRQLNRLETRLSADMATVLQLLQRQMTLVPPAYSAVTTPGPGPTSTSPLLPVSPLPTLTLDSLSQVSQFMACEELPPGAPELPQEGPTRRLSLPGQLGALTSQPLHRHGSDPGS

Structure (SMILES) | hERG current change (%, negative = inhibition) at 1uM
CCC1Sc2ccc(S(=O)(=O)CCC(=O)Nc3cc(C)ccn3)cc2NC1=O (centres unmarked) | 6.4%
COc1ccc(CN2CCc3ccc(NC(=O)CCc4ccccc4OC)cc3C2)c(O)c1 | 12.2%
O=C(Nc1ccccc1)c1nc[nH]c1C(=O)NCc1ccccc1 | 8.05%
O=C(O)/C=C/C(=O)NCc1ccccn1 | 20.1%
CC(=O)N1CCc2cc(Br)cc(S(=O)(=O)N3CCN(c4ccccn4)CC3)c21 | 14.7%
COc1ccc2oc(C(=O)OCC(=O)N3CC(C)CC(C)C3)c(C)c2c1 (centres unmarked) | -8.41%
C=CCn1c(CCCOc2ccc(Cl)cc2Cl)nnc1SCC(=O)Nc1nccs1 | 7.35%
CC12c3ccccc3C(c3ccccc31)C1C(=O)N(c3cccnc3)C(=O)C12 (centres unmarked) | 3.46%
N#Cc1cc(NC(=O)c2ccc(F)cc2)c(=O)n2c1[nH]c1ccccc12 | 13.4%
Cc1cccc(OCc2nc3ccccc3c(=O)n2N)c1 | 13.7%
NC(=O)CSc1cn(Cc2ccc(F)cc2)c2ccccc12 | 6.56%
O=C(NNc1ccccn1)C(=O)NNS(=O)(=O)c1ccc(Cl)cc1 | 12.8%
CCOC(=O)c1sc(NC(=O)CSc2nc(O)c(Cc3ccccc3)c(=O)[nH]2)nc1C | 4.92%
COc1ccc(OC)c(C2CC(=O)Nc3c2c(=O)[nH]c2ncnn32)c1 (centres unmarked) | 8.28%
C/C=C/C1=CC(=O)C[C@H](c2ccc3c(c2)OCO3)C1 | 13.4%
CC(C(=O)N1CCCC1)N(c1ccccc1)S(C)(=O)=O (centres unmarked) | 20.3%
Nn1c(SCC(=O)Nc2cccc(C(F)(F)F)c2)nncc1=O | 8.8%
C=C(C)C(=O)Nc1cccc(C2=NOC3(C2)C[C@H](C(N)=O)N(C(=O)CC#N)C3)c1 (some centres unmarked) | 6.59%
CCn1c(-c2ccc(N(C)C)cc2)nc2ccccc21 | -3.72%

Structure (SMILES) | hERG current change (%, negative = inhibition) at 1uM
COc1cc2c(cc1OC)C(c1ccccc1[N+](=O)[O-])N(C(C)=O)CC2 (centres unmarked) | 16.8%
CCOc1ccc(N(CC(=O)NC2CCCCC2)C(=O)CCCC(=O)Nc2ccccn2)cc1 | 14.3%
CC(Oc1ccc(Br)cc1)C(=O)Nn1c(=S)[nH]c2ncccc2c1=O (centres unmarked) | 6.01%
NC1=NC(c2ccc(Cl)cc2)N(c2ccc(S(N)(=O)=O)cc2)C(N)=N1 (centres unmarked) | 18.7%
COCCNC(=O)C1CC2Cn3c(nc4cc5ccccc5cc43)C2N1C (centres unmarked) | 9.89%
Nc1nnn(CC(=O)N/N=C/c2cn[nH]c2-c2ccccc2)n1 | 13.9%
O=Cc1ccc(OCCCOc2cccc3cccnc23)cc1 | 11.3%
CCOC(=O)C[C@H]1c2cc(F)ccc2S(=O)(=O)N1c1cccc(OC)c1 | 10.8%
COc1cc(=O)[nH]c(SCC(=O)Nc2ccc3ccccc3c2)n1 | 15.4%
CCOC(=O)C(CC(=O)Nc1nc(C(C)=O)c(C)s1)C(C)c1ccccc1 (centres unmarked) | 5.21%
CC(Sc1nnc(-c2ccccc2F)n1C1CC1)C(=O)N1CCCC1 (centres unmarked) | 14.9%
CC1=C2C(=O)C3C(CC=C4CC(O)CCC43C)C2CCC12OC1CC(C)CNC1C2C (centres unmarked) | 17.8%
CN1C(=O)c2ccc(NC(=O)C3CCCCC3)cc2C1=O | 0.056%
CC(O)Cc1nsc(NC(=O)c2ccc(Br)o2)n1 (centres unmarked) | -17.8%
COc1ccc2cc(C(=O)C3CCCN(Cc4cnc(N5CCOCC5)s4)C3)ccc2c1 (centres unmarked) | 24.7%
C/C(=N\NC(=O)c1ccccc1N)c1ccc(NC(=O)Cc2ccccc2)cc1 | 13.3%
O=C(Nc1ccc(-c2cscn2)cc1)C1CCCN(Cc2ccc(CO)o2)C1 (centres unmarked) | 2.28%
COc1ccc(-n2[nH]c(C)cc2=O)cc1 | 26.5%
Cl.Cn1c(=N)n(CC(O)c2cccc3ccccc23)c2ccccc21 (centres unmarked) | -40%

Structure (SMILES) | hERG current change (%, negative = inhibition) at 1uM
Cc1ccc(NC(=O)C(OC(=O)c2ccc(O)cc2)c2ccccc2)cc1Cl (centres unmarked) | -0.323%
O=C(O)/C=C/C(=O)NC1CCC(CC2CCC(NC(=O)/C=C/C(=O)O)CC2)CC1 (centres unmarked) | 20.8%
COCCN1C2=C(C(=O)CC(C)(C)C2)C(c2ccc(O)c(OC)c2)C2=C1CC(C)(C)CC2=O | 2.34%
Cc1oc(-c2ccccc2F)nc1CS(=O)(=O)CC(=O)N1CCCCCC1 | 9.21%
COc1cccc(NC(=O)CSc2nnc(-c3ccoc3C)n2-c2ccccc2)c1 | -17.5%
Clc1cnc(N/N=C/c2cccs2)c(Cl)c1 | 6.06%
COc1ccccc1CCC(=O)NCCCn1ccc2ccccc21 | 12.8%
O=C1C2CC=CCC2C(=O)N1Cc1nnc(-c2ccc(Cl)cc2)o1 (centres unmarked) | 9.12%
COc1cccc(-c2nc(CS(=O)CC(=O)NC(C)CCc3ccccc3)c(C)o2)c1 (centres unmarked) | 10.4%
O=C(CCc1ccccc1)Nc1ccncc1 | -24.3%
Cc1cc(=O)[nH]c(N)n1 | 11.5%
O=C(NCc1ccccc1)c1c[nH]c2ccc(S(=O)(=O)Nc3ccc4c(c3)OCCO4)cc2c1=O | 7.44%
CC(=O)c1c(C)n(-c2ccc(N(C)C)cc2)c2ccc(OCC(N)=O)cc12 | 8.67%
Cc1[nH]n(-c2ccc([N+](=O)[O-])cc2)c(=O)c1C=NCCc1ccc(S(N)(=O)=O)cc1 | 13.6%
Cc1ccc(/C=N/NC(=S)NC(C)C)o1 | 9.48%
Nc1nc(COc2ccccc2C=O)nc(Nc2ccccc2)n1 | 4.51%
O=C(NC(=O)N1CCN(c2cccc(Cl)c2)CC1)c1ccccc1 | 9.64%
CCC1(c2ccccc2)NC(=O)N(CC(=O)Nc2ccc(N3CCCC3)cc2C)C1=O (centres unmarked) | 2.78%
